According to article PMC12820563:
The other results are listed elsewhere or left out. The list includes weakly bound sequences.

molecular target: T1, MBP-FoxP3dN (UniProt Q99JB6); test: PD-seq (MBP pull-down with sequencing); conditions: 20 mM Tris-HCl pH 7.5, 100 mM NaCl, 1.5 mM MgCl2, 0.4 uM protein, 0.1 uM dsDNA library, 30 min, room temperature, amylose pull-down; high values mean tight binding; double strand, one strand shown
T1 sequence: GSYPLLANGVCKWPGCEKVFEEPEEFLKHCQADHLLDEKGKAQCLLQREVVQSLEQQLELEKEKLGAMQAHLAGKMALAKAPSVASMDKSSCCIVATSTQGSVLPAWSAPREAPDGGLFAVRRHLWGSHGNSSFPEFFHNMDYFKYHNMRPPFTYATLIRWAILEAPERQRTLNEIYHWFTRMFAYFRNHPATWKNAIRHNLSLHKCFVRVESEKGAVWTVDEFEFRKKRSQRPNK

Sequence	binding signal (RPM ratio (pull-down/input))
GATGATTGTTCTCCCAGCTGATGAATTCTAGCTCTCGAGTAAACAAATTTTCCTAATCTTTCTGTTCAAGCGCCATCTAC	0.384
GATGATTGTTCTCCCAGCTGATGAATTTTTTGCTTCGAGTAAACAAATTTTCCTAATCTTTCTGTTCAAGCGCCATCTAC	0.306
GATGATTGTTCTCCCAGCTGATGAATTCCCGGCCTCGAGTAAACAAATTTTCCTAATCTTTCTGTTCAAGCGCCATCTAC	0.296
GATGATTGTTCTCCCAGCTGATGAATTTCCAGCATCGAGTAAACAAATTTTCCTAATCTTTCTGTTCAAGCGCCATCTAC	0.656
GATGATTGTTCTCCCAGCTGATGAATTTTTGTCGTCGAGTAAACAAATTTTCCTAATCTTTCTGTTCAAGCGCCATCTAC	0.451
GATGATTGTTCTCCCAGCTGATGAATTACACGCCTCGAGTAAACAAATTTTCCTAATCTTTCTGTTCAAGCGCCATCTAC	0.758
GATGATTGTTCTCCCAGCTGATGAATTTGCCGAGTCGAGTAAACAAATTTTCCTAATCTTTCTGTTCAAGCGCCATCTAC	0.293
GATGATTGTTCTCCCAGCTGATGAATTCGTACGTTCGAGTAAACAAATTTTCCTAATCTTTCTGTTCAAGCGCCATCTAC	0.486
GATGATTGTTCTCCCAGCTGATGAATTTTGACGCTCGAGTAAACAAATTTTCCTAATCTTTCTGTTCAAGCGCCATCTAC	0.641
GATGATTGTTCTCCCAGCTGATGAATTCCGAACCTCGAGTAAACAAATTTTCCTAATCTTTCTGTTCAAGCGCCATCTAC	0.311
GATGATTGTTCTCCCAGCTGATGAATTTTACTCCTCGAGTAAACAAATTTTCCTAATCTTTCTGTTCAAGCGCCATCTAC	0.333
GATGATTGTTCTCCCAGCTGATGAATTCACTGTTTCGAGTAAACAAATTTTCCTAATCTTTCTGTTCAAGCGCCATCTAC	0.614
GATGATTGTTCTCCCAGCTGATGAATTGATCACTTCGAGTAAACAAATTTTCCTAATCTTTCTGTTCAAGCGCCATCTAC	0.776
GATGATTGTTCTCCCAGCTGATGAATTGTGATTATCGAGTAAACAAATTTTCCTAATCTTTCTGTTCAAGCGCCATCTAC	4.32
GATGATTGTTCTCCCAGCTGATGAATTGAGACTATCGAGTAAACAAATTTTCCTAATCTTTCTGTTCAAGCGCCATCTAC	0.692
GATGATTGTTCTCCCAGCTGATGAATTAGGACGATCGAGTAAACAAATTTTCCTAATCTTTCTGTTCAAGCGCCATCTAC	0.263
GATGATTGTTCTCCCAGCTGATGAATTTAGCACGTCGAGTAAACAAATTTTCCTAATCTTTCTGTTCAAGCGCCATCTAC	1.51
GATGATTGTTCTCCCAGCTGATGAATTGCTGACCTCGAGTAAACAAATTTTCCTAATCTTTCTGTTCAAGCGCCATCTAC	0.592
GATGATTGTTCTCCCAGCTGATGAATTCCACTATTCGAGTAAACAAATTTTCCTAATCTTTCTGTTCAAGCGCCATCTAC	0.465
GATGATTGTTCTCCCAGCTGATGAATTACGATAATCGAGTAAACAAATTTTCCTAATCTTTCTGTTCAAGCGCCATCTAC	0.405

Sequence	binding signal (RPM ratio (pull-down/input))
GATGATTGTTCTCCCAGCTGATGAATTCGACTGCTCGAGTAAACAAATTTTCCTAATCTTTCTGTTCAAGCGCCATCTAC	0.373
GATGATTGTTCTCCCAGCTGATGAATTGCTTCTATCGAGTAAACAAATTTTCCTAATCTTTCTGTTCAAGCGCCATCTAC	0.615
GATGATTGTTCTCCCAGCTGATGAATTGTACCGCTCGAGTAAACAAATTTTCCTAATCTTTCTGTTCAAGCGCCATCTAC	0.403
GATGATTGTTCTCCCAGCTGATGAATTGTCGCGATCGAGTAAACAAATTTTCCTAATCTTTCTGTTCAAGCGCCATCTAC	0.66
GATGATTGTTCTCCCAGCTGATGAATTTGACGAATCGAGTAAACAAATTTTCCTAATCTTTCTGTTCAAGCGCCATCTAC	0.208
GATGATTGTTCTCCCAGCTGATGAATTATTCCTGTCGAGTAAACAAATTTTCCTAATCTTTCTGTTCAAGCGCCATCTAC	0.277
GATGATTGTTCTCCCAGCTGATGAATTAAACATATCGAGTAAACAAATTTTCCTAATCTTTCTGTTCAAGCGCCATCTAC	0.699
GATGATTGTTCTCCCAGCTGATGAATTCTAGCCGTCGAGTAAACAAATTTTCCTAATCTTTCTGTTCAAGCGCCATCTAC	0.377
GATGATTGTTCTCCCAGCTGATGAATTAGCCTATTCGAGTAAACAAATTTTCCTAATCTTTCTGTTCAAGCGCCATCTAC	0.482
GATGATTGTTCTCCCAGCTGATGAATTATTACCCTCGAGTAAACAAATTTTCCTAATCTTTCTGTTCAAGCGCCATCTAC	0.354
GATGATTGTTCTCCCAGCTGATGAATTACGCGGATCGAGTAAACAAATTTTCCTAATCTTTCTGTTCAAGCGCCATCTAC	0.337
GATGATTGTTCTCCCAGCTGATGAATTGAGGGGATCGAGTAAACAAATTTTCCTAATCTTTCTGTTCAAGCGCCATCTAC	0.347
GATGATTGTTCTCCCAGCTGATGAATTAGGTGTATCGAGTAAACAAATTTTCCTAATCTTTCTGTTCAAGCGCCATCTAC	1.91
GATGATTGTTCTCCCAGCTGATGAATTAGTTGATTCGAGTAAACAAATTTTCCTAATCTTTCTGTTCAAGCGCCATCTAC	4.37
GATGATTGTTCTCCCAGCTGATGAATTATTACAGTCGAGTAAACAAATTTTCCTAATCTTTCTGTTCAAGCGCCATCTAC	0.351
GATGATTGTTCTCCCAGCTGATGAATTCGGGTCATCGAGTAAACAAATTTTCCTAATCTTTCTGTTCAAGCGCCATCTAC	0.619
GATGATTGTTCTCCCAGCTGATGAATTACACTCGTCGAGTAAACAAATTTTCCTAATCTTTCTGTTCAAGCGCCATCTAC	0.633
GATGATTGTTCTCCCAGCTGATGAATTTACGACGTCGAGTAAACAAATTTTCCTAATCTTTCTGTTCAAGCGCCATCTAC	0.474
GATGATTGTTCTCCCAGCTGATGAATTGCTGGCATCGAGTAAACAAATTTTCCTAATCTTTCTGTTCAAGCGCCATCTAC	0.912
GATGATTGTTCTCCCAGCTGATGAATTCTCATCTTCGAGTAAACAAATTTTCCTAATCTTTCTGTTCAAGCGCCATCTAC	0.353
